The labels stand for the following.
B1: GBRAP_14_3846 (protein)
chain: VEALIKAVEETAKDTIALAAEIAPEHAEEIGKKIEELAKKLIEEIKKKNLNEEEVAERLDEMAEELAAYIREKGYMSDEEIAAFRAHIIGTAALLLSEIE
B2: GBRAP_14_3863 (protein)
chain: MEELIKAVKETAEATKKFAAELAPEHAEEINKKIDELAEKIIKKIKEENLNKEEVAKLAEEAAEELAKFMLEKGYMSEEEAAAFRAHYLSEFLLNLEEVE
B3: GBRAP_128_3461 (protein)
chain: SIEEVKKWTRETMEKAEKASLEEARKLFEELAERLLTLSLEEVEAAVEVIEENLPKLSAEKLEILAEVFEEKLPLFSPEKRALVADVISDALLLAEEQEE
B4: GBRAP_125_3040 (protein)
chain: SLEEQLEALARLARLLGLSDDDIEELVRLAREHGIKGALIALLMAEGLEDLADLVEQLTEEQVAEVLKRLLAWLDAHPDATAEEAVAKLKELAKEALAAA
B5: GBRAP_26_5485 (protein)
chain: GTREILDALEAEVRAILADEPAEVQAAVVAEAIDRAIEFEEVVEENVNNQEKIKKAKEEALKELREFLKDLGVPEEKQKAVVEALAKALEKIEKHILEKA
B6: GBRAP_160_4170 (protein)
chain: SEKVEEAIKEIEELFEEAKEMVKGQSAEERAAIVAVTFGEIRLLLEEKGLLTDELDEKIEELEKELVDTILANPDLTDEEIAALLDETLEKLKEALKKSS
B7: GBRAP_9_7144 (protein)
chain: REEMVKKIREVLEDMFEEVSEIVPEEVKPLVDKLRKEALAAFDKVVADPSATEQEIVDAAKQLIDDFAEAVSAKVSPEIAKMVEAIALTAKEEIDEIYEE
B8: GBRAP_184_5082 (protein)
chain: KLYEAEIVAETEEELLKKVEEVLKEAAELKADLVVLVDAKGLNVELAIKIIEKFGKAKKEGKVKNVTIGFTNEFSEEEVDKLVKAADEAGVKVVLPLKDE
B9: GBRAP_73_6498 (protein)
chain: LTDTGLTDEEIADIVDHENDIFNGGEEAYEAAVARIRAALPELSPERQELLRRILEAAERAKKKDKLLAYELVALALAVVEGLDLEKARRALEALEKRLE
B10: GBRAP_35_5583 (protein)
chain: EIEEIILDTVEDFAEATIEAIETEDIETVISLTKAFIKTVKLAIKDLKNNLEALKKIKEEIEKVIKALKEKRSDNPEIQELIKELEKLLKEAEELAKKNE
B11: GBRAP_78_6689 (protein)
chain: EIEELLDKAIEHLGKAAKILAKMNTEEALELLDKVIDAASILTEALLGETKLEDLKEALKILKEVIKELKKIDTEEAKEALKYVEEAKEHVEKAIKLLEE
B12: GBRAP_184_5152 (protein)
chain: TTVNRYIDAKTVEEAIEKARKAFKEAKAAGKKLTLLIDAEGLSVEEVERLMREVVALAKEEGLEDANIIVEVEADEEEADRIIEIADKLGVRVVVALEEP
B13: GBRAP_14_3827 (protein)
chain: MEEIEKVLEEMKKELNELFKKISPEKAEELSKAVDEKIEEALKKIKETGDIEKAMEEAKEELVKEVEEILKDEPEEVRATAKAAVRILFDEALEEIEELL
B14: GBRAP_128_3214 (protein)
chain: STEEAVEQVRELLERIKTADPEERRRLARELAELVASSDVETAEAMLEVVEELAPELSEEDLEILMDAFLEASRKTDDEIGLILTEMAIIMGSQLIELEE
B15: GBRAP_128_3554 (protein)
chain: STEEVVEKAKELLEKIKNSDEEEARKYAEELVDLLASVDEESREAIVEVILEKLPELSVEQLEILADVFRERRPEVDEDVANALAEIEVEALNVALEKEE
B16: GBRAP_52_6246 (protein)
chain: MAARLRALAQEILDLVLAGDYEGARALAREVARTLNDEELEAFFDEFAALAKTQPKENLEKVWKATEIIAEVLEEEGKSEELVDLLEAKTAAALVEVLQA
B17: GBRAP_52_5954 (protein)
chain: AAARIQAQVDRLAALVRAGDLDAARALARELAETLDEEELRAFAAAVAAAVAAAPADELDAAFRLAEIVADELEREGRDEELAGDLLAAAAAALYAKEQA
B18: GBRAP_11_2610 (protein)
chain: KKETLKRLAELAEKAAEAVERLLEEGVDNEELLREIEELIEELAKEVEEHGDEADKTDVEVIRELWRKALEDPENRREYLEQLRAALRVFAGNYLLKIEE
B19: GBRAP_83_6892 (protein)
chain: ETITVVGADAASVEAAIDAAIDLSTNEGYEVTLELLVTPEALPALKAGLERLAAAGVKVDLHVVVVARTREEAEAAAAELRAFAEASGAASSVTVETEVV
B20: GBRAP_160_4317 (protein)
chain: AAEYEALKKEITEIFDEAKELIEGQTPEEKLTIVRVALGDVLLLADENPAISDELEDQIAAIADAAEARVEANPDLTEEEVKALLDEAEDAILALIDKAA
B21: GBRAP_125_2980 (protein)
chain: PTEEELAALRRLARALGLDEAEAEELAELARAHSLRGALYALLAALGEEELAELVEKLTEAEVAEVLAEVAAYLAAHPDATPEEVLARLRELAKAALAKR
B22: GBRAP_160_4319 (protein)
chain: SALLEKLKKEIKEIAEEAIKLIEGESPEERKTIVKVALGEIVLLAVENPEISDELEDEIAAIADAAEAELDANPNLTEEEVKALLKEAVDKILAKIKASE
B23: GBRAP_160_4374 (protein)
chain: SEELKKLAKEIEKLKKEFEEEAKDLSPEETRILAIGVLSEVAALVFENEAVSEEVEDKIFEIIDEAIKKIRENTDASPEEIVKITKDALEKIIKLVKEEA
B24: GBRAP_52_5973 (protein)
chain: MREEARAFVERAVALQLAGDEAGLRALAEAFAATADDEQLRVLAEAVRELVEAADPERAEAAVEAALRLEDVLLAAGRDEALADEIVAAAAAAAVARLQR
B25: GBRAP_184_5183 (protein)
chain: MVAEYTIEAKNVEELKEKLDEIAKEIKGKKVELYVILEAEKVTVEMAKAALEKLGEIKAAGYATRITVLIEGEVSEEVVDVIVEEAKKAGVNVTIALPEE
B26: GBRAP_9_7177 (protein)
chain: EQEKKEKILEVVKEEIELALEVIPEEKREEAKKLFEEILAELKKAVEDPSVTLEELLELLEKLIEELIEKLKKILSKEVVNQVEAVLGTAILEAEEIVEE
B27: GBRAP_160_4549 (protein)
chain: KEKVEELIEELDEMAEFIKEQVGKVSIDELIAFVDVEFGSFILEGIEKGVLSDELEDKLAEIRDELLARLRANADASPEEKKAMIDEAAKKAKELLKEES
B28: GBRAP_96_7091 (protein)
chain: MLEEVKKLVKKAIEAKNTNEEEFNKYVKELLKYPAELIAKALVELGVSDEEIVTLSRKMFELDPSKIGEILEALVEHIPSSAVSQVAKVAEEIEKELEAK
B29: GBRAP_35_5602 (protein)
chain: ETDEFAADSLIDQIEALVEGVPELDPETLAAIGETLLRDAEELIEDLKNNAELLERIAEALERLAEALERHHGDNPLMQEVLARVRELLERARRLIEEIK

Over roughly 4,500 sequences, “median log2 fold change of GCK-ALFA target abundance (FLAG IP / Myc IP barcode read proportion)” has its median near 0.078; the lowest 2% begin near -0.6. Some of the results follow.

Chain of GABARAP, O95166 (O95166 whole entry, the tested form may be a part): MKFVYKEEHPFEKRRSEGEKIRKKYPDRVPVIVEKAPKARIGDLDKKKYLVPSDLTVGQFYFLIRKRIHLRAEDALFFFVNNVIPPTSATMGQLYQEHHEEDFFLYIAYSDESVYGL

The target of this assay is GABARAP, O95166. Put plainly: median log2 fold change of GCK-ALFA target abundance (FLAG IP / Myc IP barcode read proportion) (log2 ratio); each designed protein is fused to an ALFA-tag nanobody in HEK293 cells to bring the named protein to FLAG-tagged glucokinase (GCK); Myc marks an untargeted standard; higher = target protein stabilised (more abundant). The following applies: target protein: 3xFLAG-MCP-GCK-ALFA reporter; HEK293 landing pad (RPLP). In short, it runs like this:
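An ALFA-nanobody-fused binder library was recombined into HEK293 landing-pad cells and induced with 2 μg mL^−1 doxycycline. Cells were transfected with a plasmid expressing a FLAG-tagged target and a Myc-tagged standard. After 48 h, lysates underwent anti-FLAG and anti-Myc immunoprecipitation, and circular RNA barcodes were reverse transcribed, amplified and sequenced. Target abundance is the per-binder median log2 ratio of FLAG to Myc barcode read proportions. Barcodes needed ≥10^−7 proportion in both replicates, binders ≥3 barcodes per replicate, and a 10^−6 pseudocount was added; the two replicates were pooled.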
As to B1, the “median log2 fold change” value was 0.12.

As to B2, the “median log2 fold change” value was 0.321.

With B3, the “median log2 fold change” value is 0.178.

Consider B4, for which the “median log2 fold change” value was -0.512.

With B5, the “median log2 fold change” value came to 0.243.

Turning to B6, the “median log2 fold change” value came to 0.214.

Regarding B7, the “median log2 fold change” value came out at 0.134.

With B8, the “median log2 fold change” value is -0.177.

On to B9, for which the “median log2 fold change” value was -0.718.

Take B10: the “median log2 fold change” value is -0.172.

On to B11, for which the “median log2 fold change” value was determined as 0.137.

In the case of B12, the “median log2 fold change” value worked out at 0.0952.

On to B13, for which the “median log2 fold change” value was -0.342.

For B14, the “median log2 fold change” value is -0.53.

Turning to B15, the “median log2 fold change” value was found to be 0.0568.

In the case of B16, the “median log2 fold change” value is -0.0714.

B17: the “median log2 fold change” value was -0.0538.

In the case of B18, the “median log2 fold change” value was determined as 0.0826.

As to B19, the “median log2 fold change” value was determined as 0.102.

Turning to B20, the “median log2 fold change” value was -0.166.

With B21, the “median log2 fold change” value was found to be 0.0397.

As for B22, the “median log2 fold change” value was 0.0853.

With B23, the “median log2 fold change” value was -0.0146.

Take B24: the “median log2 fold change” value was found to be 0.0374.

Consider B25, for which the “median log2 fold change” value is -0.0284.

In the case of B26, the “median log2 fold change” value was -0.0604.

Consider B27, for which the “median log2 fold change” value was 0.249.

As for B28, the “median log2 fold change” value was 0.176.

As to B29, the “median log2 fold change” value was -0.011.

Values taken from the supplement of paper PMC12632987.
